We go through 87 molecules from PubChem BioAssay AID463173 (ICCB-Longwood Screening Facility, Harvard Medical School, 2010).

“And” between values parts separate entries of the source, which are not always exact repeats. Equal entries are not always repeated. Out of some 52,000 compounds screened, about 1,700 (3.3%) were called active. Rule as the data show it: active = survival mostly below about 52% (no sharp cut-off); inactive = mostly above about 56%. This is one part of the list. Some structures have more than one record in an assay (separate samples or runs), and their calls can disagree.

In the assay the test system is Wild type. In words: growth inhibition of S. aureus wild type versus tarO mutant, primary screen, teichoic acid synthesis inhibitors, RN4220, OD600 (AID 463173). Particulars: S. aureus RN4220 wild type/DeltatarO growth, OD600, 18 h, stronger effect = lower value, screened at 18.75 µg/mL (by protocol).
Turning to `O=C1OC(c2ccccc2)=C/C1=C/N1CCOCC1`, the survival is inactive: 116%.
Then `O=C(Nc1nnc(S(=O)(=O)N2CCCCC2)s1)c1ccccc1Br`, with inactive: 60%.
Then `Cc1ccc(NC(=O)c2ccc3c(O)c(S(=O)(=O)c4ccccc4)c(=O)[nH]c3c2)cc1Cl`, with inactive: 100%; and `CCN(C(=O)CN1C(=O)COc2ccc(S(=O)(=O)N3CCOCC3)cc21)c1ccc(OC)cc1`, with inactive: 97%; and `O=C(COc1ccc(Cl)cc1)OCc1cc(=O)n2nc(C3CC3)sc2n1`, with inactive: 84%.
In the case of `CC(C)(C)CC(=O)NCC(c1ccc2c(c1)OCO2)N1CCOCC1` (configuration not stated), the survival is inactive: 73%.
Then `O=C(Nc1cccc(F)c1)c1ccc2c(c1)N(Cc1ccccc1)C(=O)c1ccccc1S2(=O)=O`, with inactive: 103%.
In the case of `COc1ccc(-c2nc3ccccc3s2)cc1NC(=O)c1ccc(F)cc1`, the survival is inactive: 143%.
Then `Cc1ccc(OCC(=O)Nc2ccccc2OCc2cc(=O)n3ccccc3n2)cc1C`, with inactive: 129%; and `COc1ccc(C(=O)NCC(c2ccc(N(C)C)cc2)N2CCc3ccccc32)cc1OC` (configuration not stated), with inactive: 75%; and `COC(=O)c1ccccc1NC(=O)C1CCN(C(=O)N2CC(C)Oc3ccccc32)CC1` (configuration not stated), with inactive: 75%.
Then `Cc1nn2c(=O)cc(COC(=O)c3cccc(NC(=O)c4ccc(F)cc4)c3)nc2s1`, with inactive: 71%; and `COc1ccc(N2CCN(C(=O)c3ccccc3N(C)S(C)(=O)=O)CC2)cc1`, with inactive: 94%.
As for `Cc1ccc(Cl)cc1NC(=O)Cn1c(=O)n(C(C)C)c(=O)c2oc3ccccc3c21`, the figure is inactive: 83%; as for `Cc1cccc(C(C)C)c1NC(=O)c1ccc2c(c1)CCN2S(C)(=O)=O`, inactive: 97%; as for `Cc1cccc(Nc2nnc(-c3ccc(C)c(S(=O)(=O)N4CCN(C)CC4)c3)c3ccccc23)c1`, inactive: 147%.
For the molecule `Cc1ccc(-n2nc(-c3ccccc3)c3cnc4cc5c(cc4c32)OCO5)cc1C`, the survival was inactive: 110%.
Take `CCn1c(CN2CCC(C)CC2)nc2cc(NC(=O)c3ccc([N+](=O)[O-])cc3)ccc21`: the survival was inactive: 84%.
As for `CC(C)CCNC(=O)C(=O)Nc1c2c(nn1-c1ccc(Cl)cc1)CSC2`, the figure is inactive: 82%.
For `CC(=O)Nc1cccc(NC(=O)CSc2ccc(-c3sc(-c4ccccc4)nc3C)nn2)c1`, the survival is active: 17%.
As for `O=C(O)CCc1ccc(-c2ccccc2)n1-c1ccc(C(=O)O)cc1`, the figure is inactive: 131%.
Turning to `COc1cccc(NC(=O)c2oc3ccc(S(=O)(=O)N4CCCCCC4)cc3c2C)c1`, the survival was inactive: 80%.
As for `CCOc1ccc(S(=O)(=O)N2CCC(c3ccncc3)CC2)cc1`, the figure is inactive: 159%; as for `Cc1ccc(N2C(=O)CC(NCC(=O)O)C2=O)c(C)c1` (configuration not stated), inactive: 115%.
Then `COc1ccc(-c2cc(C(=O)NCCc3ccc(OC)c(OC)c3)c3c(-c4ccc(F)cc4)[nH]nc3n2)cc1`, with inactive: 97%; and `COc1cccc(NC(=O)CN(c2cccc(OC)c2)S(C)(=O)=O)c1`, with inactive: 111%; and `CCOC(=O)c1ccc(NC(=O)Cn2c3ncccc3c(=O)n2-c2ccc(C)c(C)c2)cc1`, with inactive: 73%.
As for `Cc1cc(C)n(-c2nc(C)c(C)c(=O)n2CC(=O)Nc2cccc([N+](=O)[O-])c2)n1`, the figure is inactive: 64%; as for `CCOC(=O)C(C)Sc1nc(-c2ccccc2)ccc1C#N` (configuration not stated), inactive: 107% and active: 0%; as for `CCC(C)NC(=O)c1c(C)oc2nc(C)nc(N3CCOCC3)c12` (configuration not stated), inactive: 88%.
In the case of `Cc1ccc(NC(=O)c2ccc3snnc3c2)cc1C`, the survival is inactive: 97%.
In the case of `COC(=O)c1ccccc1NC(=O)c1nn(-c2ccc(OC)cc2)c(=O)c2c1c1ccccc1n2C`, the survival is inactive: 78%.
As for `CCC(CC)C(=O)N1CCN(Cc2ccccc2)CC1`, the figure is inactive: 108%; as for `COc1cccc(NC(=O)C2CCN(S(=O)(=O)c3ccc4[nH]c5c(c4c3)CCCCC5)CC2)c1`, inactive: 84%.
`CCN(CC)C(=O)Cn1c(=O)n(CCc2ccccc2)c(=O)c2ccccc21`: the survival was inactive: 90%.
As for `COc1cccc(N2CCN(c3ncnc4c3c(-c3ccccc3)cn4-c3cccc(C(F)(F)F)c3)CC2)c1`, the figure is inactive: 82%; as for `CCCNC(=O)N1[C@H](c2cccs2)[C@@H](C)C(=O)[C@@H](C)[C@@H]1c1cccs1`, inactive: 107%.
As for `CCCN1C2CCCC1CC(NC(=O)Nc1ccccc1C(F)(F)F)C2` (configuration not stated), the figure is inactive: 98%; as for `Cc1cc(Nc2ccc(Br)c(C)c2)n2nc(-c3ccco3)nc2n1`, active: -6%.
For `COc1ccc(OC)c(NC(=O)N2CC3CCCN3c3ccccc32)c1` (configuration not stated), the survival was inactive: 80%.
Then `CCOC(=O)Cc1c(C(=O)OCC)nnc2c(-c3ccccc3)c(C)nn12`, with inactive: 71%; and `CC(=O)c1ccc(NC(=O)CC2Oc3ccc(C)cc3NC2=O)cc1` (configuration not stated), with inactive: 89%.
For `COCCNc1oc(-c2ccc(OC)cc2)nc1C#N`, the survival is inactive: 70%.
On to `CCOC(=O)c1cccc(NC(=O)N2CC=C(c3c[nH]c4ccccc34)CC2)c1`, for which the survival was inactive: 72%.
Turning to `Cc1cc(C)n2nc(CNS(=O)(=O)c3ccccc3)nc2n1`, the survival is inactive: 122%.
Take `CCOC(=O)c1ccccc1NC(=O)COC(=O)CC(C)(C)CC1=NS(=O)(=O)c2ccccc2N1`: the survival is inactive: 63%.
As for `COc1ccc(CNC2CCCC2)cc1`, the figure is inactive: 108%; as for `COc1ccc(S(=O)(=O)NCC(c2ccc(N(C)C)cc2)N2CCc3ccccc32)cc1F` (configuration not stated), inactive: 91%.
In the case of `CCOc1ccc(N(CC)S(=O)(=O)N2CCCC(C(=O)Nc3ccc(OC)c(Cl)c3)C2)cc1` (configuration not stated), the survival was inactive: 83%.
As for `COc1cccc(NC(=O)CSc2c3c(nc4ccccc24)CCCC3)c1`, the figure is inactive: 43%.
As to `O=C(O)c1ccccc1C(=O)Nc1cccnc1`, the survival is inactive: 108%.
In the case of `Cc1cccc(NC(=O)CN2C(=O)CSc3ccc(S(=O)(=O)N4CCCC4)cc32)c1C`, the survival was inactive: 98%.
As for `COc1ccc(-c2onc(C)c2C)cc1S(=O)(=O)N1CCN(c2cc(C)ccc2C)CC1`, the figure is inactive: 55%; as for `Cc1c(Cl)ccc2sc(N3CCN(C(=O)C4CC4)CC3)nc12`, inactive: 73%; as for `COc1ccc(-c2cc3nc(C)c(CCC(=O)NC(C)c4ccccc4)c(C)n3n2)c(OC)c1` (configuration not stated), inactive: 83%.
Then `O=C(Nc1ccccc1C(F)(F)F)N1CC=C(c2c[nH]c3ccccc23)CC1`, with inactive: 127%; and `COC(=O)CC(=O)CSc1nc2cc(C(=O)NCC(C)C)ccc2c(=O)n1CCc1ccccc1`, with inactive: 133%; and `Cc1nn(C(=O)c2cccc([N+](=O)[O-])c2C)c(C)c1S(=O)(=O)N1CCCCCC1`, with active: -4%.
As for `CC1CCN(S(=O)(=O)c2ccc3c(c2)CCN3C(=O)Nc2ccc(Br)cc2F)CC1`, the figure is inactive: 84%.
As for `Cc1cccc(NC(=O)N2CCC(CN3CCCCCC3)CC2)c1C`, the survival is inactive: 55%.
As for `CCOc1ccccc1C(=O)N1CCC(c2nc3ccccc3o2)CC1`, the survival was inactive: 81%.
In the case of `COc1ccc(OC)c(NC(=O)CC(=O)Nc2ccc3nc4n(c(=O)c3c2)CCCCC4)c1`, the survival was inactive: 67%.
Regarding `Cc1nc(SCC(=O)Nc2ccc(C(=O)O)cc2)n[nH]1`, the survival is inactive: 78%.
Turning to `CCc1ccccc1NC(=O)Cn1nc(N2CCN(c3ccccc3OC)CC2)ccc1=O`, the survival was inactive: 82%.
Turning to `O=C(Cn1c(C(=O)NC2CCCCC2)cc2sccc21)c1ccccc1`, the survival is inactive: 136%.
As to `N#Cc1cc(-c2ccccc2C(F)(F)F)no1`, the survival was inactive: 93%.
As for `Cc1ccc(C2CCN(C(=O)c3cnn(-c4ccc(C)c(C)c4)c3C3CCN(C(=O)OC(C)(C)C)CC3)C2)cc1` (configuration not stated), the figure is inactive: 72%; as for `Cc1cc(C)c(OCCOCCn2c(-c3ccc(Cl)cc3)nc3ccccc3c2=O)c(C)c1`, inactive: 51%; as for `CS(=O)(=O)N(Cc1ccccc1)c1ccc(C(=O)Nc2ccc(Cl)cc2)cc1`, inactive: 168%.
As to `Cc1cccc(-n2nc(C)c(C(=O)N3CCN(c4ccccc4)CC3)c2-n2cccc2)c1`, the survival is inactive: 53%.
Consider `NC(=O)CSc1nc2ccc(NC(=O)COc3ccccc3Cl)cc2s1`, for which the survival is inactive: 98%.
With `Cc1ccc(C)c(N2CCN(C(=O)C(CC(C)C)NS(=O)(=O)c3ccc4nc(C)sc4c3)CC2)c1` (configuration not stated), the survival was inactive: 118%.
Then `Cc1cc(F)ccc1NC(=O)CCn1nc(C)c(S(=O)(=O)N2CCCCC2)c1C`, with inactive: 72%; and `COc1cc(C(=O)NCC#N)cc(OC)c1OC`, with inactive: 97%; and `COc1ccccc1C(=O)Nc1ccc(S(=O)(=O)Nc2ncccn2)cc1`, with inactive: 80%.
`CCOc1ccc(-c2cc(C(=O)NCCc3ccc(OC)c(OC)c3)c3c(-c4ccc(F)cc4)[nH]nc3n2)cc1`: the survival was inactive: 94%.
Regarding `COc1cccc(-c2nc(SCC(=O)Nc3ccc4c(c3)OCCO4)c(-c3ccc(C)cc3)[nH]2)c1`, the survival was inactive: 77%.
As for `O=C1OCCC1Sc1nc2ccccc2n1Cc1ccccc1` (configuration not stated), the survival is inactive: 114%.
In the case of `COc1ccc(Cl)cc1NC(=O)c1cc(S(=O)(=O)N(C)Cc2ccccc2)ccc1F`, the survival was inactive: 91%.
Then `Cc1cccc(OCCCn2c(CCNC(=O)C3CCCCC3)nc3ccccc32)c1`, with inactive: 34%.
For `COc1ccccc1CN(Cc1c(Cl)cccc1Cl)S(=O)(=O)c1ccc(Br)cc1`, the survival is inactive: 74%.
`Cn1c(=O)[nH]c(=O)c2c1nc(CN1CCN(c3ccccc3F)CC1)n2Cc1ccc(F)cc1`: the survival is inactive: 120%.
As for `Cc1ccc(C)c(N2CCN(c3nc4ccc(C(=O)c5ccccc5)cc4n4cnnc34)CC2)c1`, the figure is inactive: 100%.
`CCOC(=O)c1cnc2c(C)cccc2c1Nc1ccc(OC(C)C)cc1`: the survival is active: 3%.
As for `O=C(NCCc1ccc(Cl)cc1)c1ccc(CSCc2cccc(Cl)c2)o1`, the figure is inactive: 99%.
For `CCOc1cc(C2NC(=O)NC(C)=C2C(=O)Nc2ccc(F)cc2)ccc1O` (configuration not stated), the survival is inactive: 69%.
As for `Cn1cc(S(=O)(=O)c2cccc(Cl)c2)c(=O)c2cc(F)c(N3CCCCC3)cc21`, the survival is inactive: 60%.
